# Measurements taken from US20040002425A1, “Triketone derivatives and herbicides” (Idemitsu Kosan Co., Ltd., priority 1998, published 2004).
# The name of at least one read-out is uncertain.
# Tests used:
# Scirups juncoides [1] = test: Biological Test 2 (soaking in water/treatment on the 10th day after transplantation): weed-killing effect on Scirups juncoides; type: in vivo, Scirpus juncoides; details: Treatment performed 10 days after transplantation
# Echinochloa crug-galli [2] = test: Biological Test 1 (soaking in water/treatment on the 3rd day after transplantation): weed-killing effect on barnyard grass; type: in vivo, Echinochloa crus-galli; details: Treatment performed 3 days after transplantation
# Echinochloa crug-galli [3] = test: Biological Test 2 (soaking in water/treatment on the 10th day after transplantation): weed-killing effect on barnyard grass; type: in vivo, Echinochloa crus-galli; details: Treatment performed 10 days after transplantation
# Scirups juncoides [4] = test: Biological Test 1 (soaking in water/treatment on the 3rd day after transplantation): weed-killing effect on Scirups juncoides; type: in vivo, Scirpus juncoides; details: Treatment performed 3 days after transplantation
SMILES,"Weed-killing effect, Scirups juncoides (Scirups juncoides [1]; dose 100 g/ha)","Weed-killing effect, Scirups juncoides (Scirups juncoides [1]; dose 200 g/ha)","Weed-killing effect, Echinochloa crug-galli (Echinochloa crug-galli [2]; dose 100 g/ha)","Weed-killing effect, Echinochloa crug-galli (Echinochloa crug-galli [2]; dose 200 g/ha)","Weed-killing effect, Echinochloa crug-galli (Echinochloa crug-galli [3]; dose 100 g/ha)","Weed-killing effect, Echinochloa crug-galli (Echinochloa crug-galli [3]; dose 200 g/ha)","Weed-killing effect, Scirups juncoides (Scirups juncoides [4]; dose 100 g/ha)","Weed-killing effect, Scirups juncoides (Scirups juncoides [4]; dose 200 g/ha)"
O=C1CCCC(Cl)=C1C(=O)c1ccc2c(c1Cl)CCS2(=O)=O [B-1],5 (90% or more (almost completely withered)),5 (90% or more (almost completely withered)),5 (90% or more (almost completely withered)),5 (90% or more (almost completely withered)),4 (70% or more and less than 90%),5 (90% or more (almost completely withered)),5 (90% or more (almost completely withered)),5 (90% or more (almost completely withered))
CCSC1=C(C(=O)c2ccc3c(c2Cl)CCS3(=O)=O)C(=O)CCC1 [B-2],4 (70% or more and less than 90%),5 (90% or more (almost completely withered)),4 (70% or more and less than 90%),5 (90% or more (almost completely withered)),3 (40% or more and less than 70%),4 (70% or more and less than 90%),5 (90% or more (almost completely withered)),5 (90% or more (almost completely withered))
O=C1CCCC(Sc2ccccc2)=C1C(=O)c1ccc2c(c1Cl)CCS2(=O)=O [B-3],4 (70% or more and less than 90%),5 (90% or more (almost completely withered)),3 (40% or more and less than 70%),4 (70% or more and less than 90%),3 (40% or more and less than 70%),4 (70% or more and less than 90%),4 (70% or more and less than 90%),5 (90% or more (almost completely withered))
Cc1cc(C(=O)C2=C(Cl)CCCC2=O)c(Cl)c2c1S(=O)(=O)CC2 [B-4],5 (90% or more (almost completely withered)),5 (90% or more (almost completely withered)),5 (90% or more (almost completely withered)),5 (90% or more (almost completely withered)),4 (70% or more and less than 90%),5 (90% or more (almost completely withered)),5 (90% or more (almost completely withered)),5 (90% or more (almost completely withered))
Cc1cc(C(=O)C2=C(Sc3ccccc3)CCCC2=O)c(Cl)c2c1S(=O)(=O)CC2 [B-5],4 (70% or more and less than 90%),4 (70% or more and less than 90%),4 (70% or more and less than 90%),4 (70% or more and less than 90%),3 (40% or more and less than 70%),4 (70% or more and less than 90%),4 (70% or more and less than 90%),4 (70% or more and less than 90%)
O=C1CCCC(Br)=C1C(=O)c1ccc2c(c1Cl)CCS2(=O)=O [B-6],5 (90% or more (almost completely withered)),5 (90% or more (almost completely withered)),5 (90% or more (almost completely withered)),5 (90% or more (almost completely withered)),4 (70% or more and less than 90%),5 (90% or more (almost completely withered)),5 (90% or more (almost completely withered)),5 (90% or more (almost completely withered))
CSC1=C(C(=O)c2ccc3c(c2Cl)CCS3(=O)=O)C(=O)CCC1 [B-7],4 (70% or more and less than 90%),5 (90% or more (almost completely withered)),4 (70% or more and less than 90%),5 (90% or more (almost completely withered)),4 (70% or more and less than 90%),4 (70% or more and less than 90%),5 (90% or more (almost completely withered)),5 (90% or more (almost completely withered))
"CCCSC1=C(C(=O)c2ccc3c(c2Cl)CCS3(=O)=O)C(=O)CCC1 [B-8, 4-chloro-5-[3-(3-propyl)thio-1-oxocyclohexan-2-yl]carbonyl-2,3-dihydrobenzothiophene-1,1-dioxide]",5 (90% or more (almost completely withered)),5 (90% or more (almost completely withered)),4 (70% or more and less than 90%),5 (90% or more (almost completely withered)),4 (70% or more and less than 90%),4 (70% or more and less than 90%),5 (90% or more (almost completely withered)),5 (90% or more (almost completely withered))
CC(C)SC1=C(C(=O)c2ccc3c(c2Cl)CCS3(=O)=O)C(=O)CCC1 [B-9],4 (70% or more and less than 90%),5 (90% or more (almost completely withered)),4 (70% or more and less than 90%),5 (90% or more (almost completely withered)),4 (70% or more and less than 90%),4 (70% or more and less than 90%),5 (90% or more (almost completely withered)),5 (90% or more (almost completely withered))
CCCCSC1=C(C(=O)c2ccc3c(c2Cl)CCS3(=O)=O)C(=O)CCC1 [B-10],4 (70% or more and less than 90%),5 (90% or more (almost completely withered)),3 (40% or more and less than 70%),5 (90% or more (almost completely withered)),3 (40% or more and less than 70%),4 (70% or more and less than 90%),4 (70% or more and less than 90%),5 (90% or more (almost completely withered))
O=C1CCCC(SCc2ccccc2)=C1C(=O)c1ccc2c(c1Cl)CCS2(=O)=O [B-11],4 (70% or more and less than 90%),5 (90% or more (almost completely withered)),3 (40% or more and less than 70%),4 (70% or more and less than 90%),3 (40% or more and less than 70%),3 (40% or more and less than 70%),4 (70% or more and less than 90%),5 (90% or more (almost completely withered))
"CON(C)C1=C(C(=O)c2ccc3c(c2Cl)CCS3(=O)=O)C(=O)CCC1 [B-12, 4-chloro-5-[3-(N-methoxymethyl)amino-1-oxocyclohexan-2-yl]carbonyl-2,3-dihydrobenzothiophene-1,1-dioxide]",5 (90% or more (almost completely withered)),5 (90% or more (almost completely withered)),5 (90% or more (almost completely withered)),5 (90% or more (almost completely withered)),5 (90% or more (almost completely withered)),5 (90% or more (almost completely withered)),5 (90% or more (almost completely withered)),5 (90% or more (almost completely withered))
CN(C)C1=C(C(=O)c2ccc3c(c2Cl)CCS3(=O)=O)C(=O)CCC1 [B-13],4 (70% or more and less than 90%),4 (70% or more and less than 90%),3 (40% or more and less than 70%),4 (70% or more and less than 90%),3 (40% or more and less than 70%),3 (40% or more and less than 70%),4 (70% or more and less than 90%),4 (70% or more and less than 90%)
"Cc1ccc(SC2=C(C(=O)c3ccc4c(c3Cl)CCS4(=O)=O)C(=O)CCC2)cc1 [B-14, 4-chloro-5-[3-(4-methylphenyl)thio-1-oxocyclohexan-2-yl]carbonyl-2,3-dihydrobenzothiophene-1,1-dioxide]",4 (70% or more and less than 90%),5 (90% or more (almost completely withered)),3 (40% or more and less than 70%),4 (70% or more and less than 90%),3 (40% or more and less than 70%),4 (70% or more and less than 90%),4 (70% or more and less than 90%),5 (90% or more (almost completely withered))
